The record followed here is the supplement of paper PMC4166925.

± gives the standard deviation of the averaged measurements. Over roughly 33,000 sequences, “E-score (dimensionless, -0.5 to 0.5)” has its median near -0.049; the highest 2% begin near 0.37. This is one part of the list.

The subject of this experiment is T1, PmTbr T-box DNA-binding domain (GST fusion).
T1 sequence: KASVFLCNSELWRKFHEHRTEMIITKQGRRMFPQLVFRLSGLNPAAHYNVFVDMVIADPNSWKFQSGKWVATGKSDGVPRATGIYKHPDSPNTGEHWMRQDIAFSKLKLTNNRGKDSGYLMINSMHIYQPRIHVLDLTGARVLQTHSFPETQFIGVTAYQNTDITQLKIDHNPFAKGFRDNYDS
Description: PBM E-score of 8-mer (E-score (dimensionless, -0.5 to 0.5)); Tbr is Tbrain of the sea star Patiria miniata (Pm) or the sea urchin Strongylocentrotus purpuratus (Sp); higher = stronger binding preference; most listed sequences are background and not binding sites. To be noted: the construct has about 5 more residues each side. The essentials: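 Using the Universal PBM Analysis Suite, every ungapped 8-mer received an enrichment E-score averaged over duplicate arrays. Probe intensities came from double-stranded Universal Agilent oligonucleotide arrays incubated with 200 nM GST-fused Tbr T-box DNA-binding domain in PBS (pH 7.5). That protein was expressed in BL21 E. coli at 20 °C and purified by glutathione affinity chromatography.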
Regarding ACTGCCTA, the “PBM E-score of 8-mer” value is -0.156 ± 0.037.

Regarding AAAAGTAA, the “PBM E-score of 8-mer” value was -0.176 ± 0.043.

In the case of AGGTGAAT, the “PBM E-score of 8-mer” value is -0.00779 ± 0.047.

Regarding ACATCCAG, the “PBM E-score of 8-mer” value turned out to be 0.0759 ± 0.017.

Regarding CCGAAAGG, the “PBM E-score of 8-mer” value was -0.112 ± 0.0043.

With CACGACGG, the “PBM E-score of 8-mer” value was 0.0597 ± 0.069.

As to CGATAGCC, the “PBM E-score of 8-mer” value is -0.117 ± 0.0063.

As for CCTGTTCG, the “PBM E-score of 8-mer” value is 0.175 ± 0.002.

For the sequence TGTATGAA, the “PBM E-score of 8-mer” value is -0.183 ± 0.0043.

Regarding AACTTCAT, the “PBM E-score of 8-mer” value is -0.0586 ± 0.031.

Regarding GGGATTCA, the “PBM E-score of 8-mer” value was -0.1647 ± 0.0013.

With CTCGTATA, the “PBM E-score of 8-mer” value is -0.193 ± 0.069.

In the case of CCAATGCA, the “PBM E-score of 8-mer” value is -0.209 ± 0.028.

Turning to AGAGAAAC, the “PBM E-score of 8-mer” value was -0.157 ± 0.043.

Turning to CTGGGGCA, the “PBM E-score of 8-mer” value is -0.0331 ± 0.031.

In the case of TAACGTCA, the “PBM E-score of 8-mer” value is -0.0324 ± 0.0079.

For the sequence AGAACCCC, the “PBM E-score of 8-mer” value was -0.0878 ± 0.0035.

GTAAACGA: the “PBM E-score of 8-mer” value was -0.148 ± 0.026.

On to AACCGGCC, for which the “PBM E-score of 8-mer” value is -0.283 ± 0.012.

GTGACTGA: the “PBM E-score of 8-mer” value was 0.263 ± 0.032.

As to GCGAGAAA, the “PBM E-score of 8-mer” value worked out at 0.356 ± 0.034.

With AAGGCGCA, the “PBM E-score of 8-mer” value worked out at 0.165 ± 0.044.

Regarding CAATGAGG, the “PBM E-score of 8-mer” value was -0.0925 ± 0.0019.

Take AGTGCTAT: the “PBM E-score of 8-mer” value was found to be 0.27 ± 0.0047.

Regarding CAATAGGC, the “PBM E-score of 8-mer” value was -0.098 ± 0.051.

For the sequence CTGTATGC, the “PBM E-score of 8-mer” value is -0.0662 ± 0.0046.

For the sequence GGGGGGAA, the “PBM E-score of 8-mer” value was -0.175 ± 0.05.

As to GAAAGATC, the “PBM E-score of 8-mer” value is -0.168 ± 0.036.

For GAGGGGCA, the “PBM E-score of 8-mer” value is -0.0547 ± 0.1.

Turning to GGAAGGTA, the “PBM E-score of 8-mer” value was -0.0818 ± 0.022.

GAGTAACC: the “PBM E-score of 8-mer” value was -0.257 ± 0.032.

For the sequence ATGACTAC, the “PBM E-score of 8-mer” value was -0.209 ± 0.0029.

Regarding CTAAGCGA, the “PBM E-score of 8-mer” value is 0.0244 ± 0.053.

In the case of CCAGTAAG, the “PBM E-score of 8-mer” value stood at 0.0168 ± 0.025.

On to GCTCCTAC, for which the “PBM E-score of 8-mer” value came out at 0.0182 ± 0.0046.

On to GCGCAGCA, for which the “PBM E-score of 8-mer” value is -0.194 ± 0.069.

With AGCTAGGC, the “PBM E-score of 8-mer” value came to 0.00842 ± 0.052.

As for ACGTCCCA, the “PBM E-score of 8-mer” value worked out at 0.0569 ± 0.037.

Turning to CATGTCGC, the “PBM E-score of 8-mer” value came to 0.267 ± 0.011.

With GGTACGGA, the “PBM E-score of 8-mer” value is -0.104 ± 0.044.

For the sequence ACTGCGAA, the “PBM E-score of 8-mer” value stood at 0.315 ± 0.012.

Turning to AGGGTAGA, the “PBM E-score of 8-mer” value is -0.12 ± 0.02.

For ACAAGATA, the “PBM E-score of 8-mer” value was -0.215 ± 0.052.

CGCCAACG: the “PBM E-score of 8-mer” value came to 0.2304 ± 0.00079.

In the case of AGCCCCCG, the “PBM E-score of 8-mer” value is -0.145 ± 0.03.

GGACGGAA: the “PBM E-score of 8-mer” value is -0.119 ± 0.043.

GGTTGCCA: the “PBM E-score of 8-mer” value was 0.0405 ± 0.031.

As to GCAGCGAC, the “PBM E-score of 8-mer” value came to 0.0877 ± 0.0075.

On to ACTGGCGC, for which the “PBM E-score of 8-mer” value was 0.122 ± 0.035.

On to CCCTTCTA, for which the “PBM E-score of 8-mer” value is -0.00377 ± 0.028.

For the sequence CGCGGACG, the “PBM E-score of 8-mer” value came out at 0.17 ± 0.035.

GGCACAGA: the “PBM E-score of 8-mer” value is -0.101 ± 0.023.

As for AGCCGCCT, the “PBM E-score of 8-mer” value was -0.0512 ± 0.017.

ACTCTGAT: the “PBM E-score of 8-mer” value was -0.211 ± 0.084.

As for ACGCTTTG, the “PBM E-score of 8-mer” value was 0.137 ± 0.0018.

As for GCTATCCC, the “PBM E-score of 8-mer” value was -0.125 ± 0.021.

As for AGCGTAAG, the “PBM E-score of 8-mer” value is -0.0533 ± 0.049.

As to CAGCCTAG, the “PBM E-score of 8-mer” value worked out at 0.00532 ± 0.024.

AAGCAAAT: the “PBM E-score of 8-mer” value is -0.216 ± 0.011.

With ATCACGAG, the “PBM E-score of 8-mer” value is 0.167 ± 0.054.

Take AGGACCAG: the “PBM E-score of 8-mer” value is -0.286 ± 0.038.

For ATCGTTGC, the “PBM E-score of 8-mer” value came to 0.0354 ± 0.0053.

Regarding ATTGAACG, the “PBM E-score of 8-mer” value was -0.258 ± 0.015.

For the sequence CTGGTAAA, the “PBM E-score of 8-mer” value was -0.0095 ± 0.053.

In the case of TCAATCGA, the “PBM E-score of 8-mer” value was -0.104 ± 0.049.

ATCCCAAA: the “PBM E-score of 8-mer” value is -0.226 ± 0.015.

Regarding AGAAACAG, the “PBM E-score of 8-mer” value is -0.136 ± 0.075.

As to CAGAGTGG, the “PBM E-score of 8-mer” value is -0.211 ± 0.0088.

Regarding AGACGCCT, the “PBM E-score of 8-mer” value is 0.049 ± 0.019.

Consider GATTACCA, for which the “PBM E-score of 8-mer” value was -0.168 ± 0.028.

Turning to AAAGTAGT, the “PBM E-score of 8-mer” value was -0.113 ± 0.039.

On to CATTAGGG, for which the “PBM E-score of 8-mer” value is -0.194 ± 0.027.

For the sequence ACGTAGTG, the “PBM E-score of 8-mer” value is 0.037 ± 0.02.

Regarding ACATCACA, the “PBM E-score of 8-mer” value was determined as 0.322 ± 0.024.

Turning to AACTACTA, the “PBM E-score of 8-mer” value is 0.0568 ± 0.043.

Turning to GCGTCAGA, the “PBM E-score of 8-mer” value stood at 0.182 ± 0.027.

For GCCGATTA, the “PBM E-score of 8-mer” value is -0.0069 ± 0.053.

For the sequence CCAGGCCC, the “PBM E-score of 8-mer” value is -0.287 ± 0.0065.

Consider ATTGCCCC, for which the “PBM E-score of 8-mer” value is -0.1976 ± 0.0019.

On to CCTACTAC, for which the “PBM E-score of 8-mer” value is -0.0602 ± 0.0068.

With TAACTGGA, the “PBM E-score of 8-mer” value was -0.194 ± 0.023.

GCCGTGCA: the “PBM E-score of 8-mer” value was -0.144 ± 0.035.

As for GGCCTACC, the “PBM E-score of 8-mer” value was -0.0189 ± 0.018.

As to ATGAGTAC, the “PBM E-score of 8-mer” value is -0.00545 ± 0.022.

Take CCTAGGTC: the “PBM E-score of 8-mer” value stood at 0.0715 ± 0.009.

Take CCTCGTAC: the “PBM E-score of 8-mer” value is -0.154 ± 0.07.

Take AACTTTTA: the “PBM E-score of 8-mer” value was -0.0469 ± 0.11.

For CTGTCAAG, the “PBM E-score of 8-mer” value stood at 0.2006 ± 0.0012.

For the sequence GCTTTACC, the “PBM E-score of 8-mer” value was -0.126 ± 0.066.

As for CCTCAAAA, the “PBM E-score of 8-mer” value is -0.147 ± 0.0033.

On to CTGACAAG, for which the “PBM E-score of 8-mer” value came out at 0.217 ± 0.011.

GGAACCCC: the “PBM E-score of 8-mer” value is -0.246 ± 0.031.

Regarding CTAATATA, the “PBM E-score of 8-mer” value is -0.229 ± 0.047.

With AAGACGCC, the “PBM E-score of 8-mer” value was -0.0908 ± 0.029.

For the sequence AGGCCAGG, the “PBM E-score of 8-mer” value is -0.202 ± 0.098.

ATCAAAAG: the “PBM E-score of 8-mer” value was -0.133 ± 0.097.

For the sequence CACCTGCA, the “PBM E-score of 8-mer” value was determined as 0.4 ± 0.0099.

Turning to GTAGCCGA, the “PBM E-score of 8-mer” value is -0.142 ± 0.028.

Turning to ACCCTTTC, the “PBM E-score of 8-mer” value was -0.198 ± 0.077.

On to ACAGACGC, for which the “PBM E-score of 8-mer” value stood at 0.0551 ± 0.00085.

For GAACGTGA, the “PBM E-score of 8-mer” value turned out to be 0.135 ± 0.043.

In the case of GCCTCGTA, the “PBM E-score of 8-mer” value is -0.277 ± 0.052.

Consider CATGCTAA, for which the “PBM E-score of 8-mer” value was determined as 0.159 ± 0.055.

As to GACGCTCC, the “PBM E-score of 8-mer” value is -0.136 ± 0.015.

Turning to GGGCGCCC, the “PBM E-score of 8-mer” value was found to be 0.0748 ± 0.0076.

For the sequence CGTCGGAG, the “PBM E-score of 8-mer” value was -0.0302 ± 0.0062.

CTAATGCA: the “PBM E-score of 8-mer” value is 0.0895 ± 0.026.

Regarding CACGTCTC, the “PBM E-score of 8-mer” value is 0.151 ± 0.0079.

With ATAAACCG, the “PBM E-score of 8-mer” value is -0.202 ± 0.034.
